The other results are listed elsewhere or left out. Sequences were assembled here from the parent chain. Values near 0.05 are background.
B1: TEV protease; numbered along this chain (parent)
chain: MGESLFKGPRDYNPISSSICHLTNESDGHTTSLYGIGFGPFIITNKHLFRRNNGTLVVQSLHGVFKVKDTTTLQQHLVDGRDMIIIRMPKDFPPFPQKLKFREPQREERICLVTTNFQTKSMSSMVSDTSCTFPSGDGIFWKHWIQTKDGQCGSPLVSTRDGFIVGIHSASNFTNTNNYFTSVPKNFMELLTNQEAQQWVSGWRLNADSVLWGGHKVFMVKPEEPFQPVKEATQL

Variants of: B1
Assay: raw area under fraction-flipped curve 0-4 h after induction (AUC4h, not background-subtracted), DNA-recorder readout of cleavage of the substrate (dimensionless); higher = more cleavage of the substrate by the protease variant
Conditions: temperature: 34 °C; time window: 0-4 h after rhamnose induction
Experimental: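 In vivo DNA recorder in E. coli TOP10(DE3) ΔrhaA at 34 °C. Each TEVp single-site mutant (parent TEVp 0) is paired with a single-site variant of the 7-mer TEVs (canonical ENLYFQ|S). The substrate sits between flexible linkers in a Bxb1-sfGFP-TEVs-SsrA fusion, so cleavage stabilises Bxb1 and speeds flipping of a recombination array, read by NGS. The value is the raw area under the fraction-flipped curve over 0-4 h after rhamnose induction (AUC4h), with ≥20 reads per time point. It is not background-subtracted; inactive controls average about 0.047.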
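Further: Bxb1 expression induced with 0.2% (w/v) L-rhamnose at OD600 near 0.5, cultures sampled hourly, flipped fraction per protease–substrate barcode pair counted by paired-end Illumina sequencing.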

| Variant | area with substrate ENLYFQA | area with substrate ENLYFQF | area with substrate ENLYFQG | area with substrate ENLYFQH | area with substrate ENLYFQI | area with substrate ENLYFQK | area with substrate ENLYFQR | area with substrate ENLYFQS | area with substrate ENLYFQT | area with substrate ENLYFQV | area with substrate ENLYFQC | area with substrate ENLYFQD | area with substrate ENLYFQL | area with substrate ENLYFQM | area with substrate ENLYFQN | area with substrate ENLYFQP | area with substrate ENLYFQQ | area with substrate ENLYFQW | area with substrate ENLYFQY | area with substrate ENLYFQE |
| --- | --- | --- | --- | --- | --- | --- | --- | --- | --- | --- | --- | --- | --- | --- | --- | --- | --- | --- | --- | --- |
| MGESLFKGPRDYNPISSSICHLTNESDGHTTSLYGIGFGPFIITNKHLFRRNNGTLVVQSLHGVFKVKDTTTLQQHLVDGRDMIIIRMPKDFPPFPQKLKFREPQREERICLVTTNFQTKSMSSMVSDTSCTFPSGDGIFWKHWIQTKDGQCGSPLVSTRDGFIVGIHSASNFTNTNNYFTSVPKNFMELLTNQEAQQWVSGWRLNADSVLWGGHLVFMVKPEEPFQPVKEATQL [K216L] | 0.0769 | 0.0784 | 0.0823 | 0.0685 | 0.0435 | 0.0667 | 0.0647 | 0.0874 | 0.053 | 0.035 | – | – | – | – | – | – | – | – | – | – |
| MGESLFKGPRDYNPISSSICHLTNESDGHTTSLYGIGFGPFIITNKHLFRRNNGTLVVQSLHGVFKVKDTTTLDQHLVDGRDMIIIRMPKDFPPFPQKLKFREPQREERICLVTTNFQTKSMSSMVSDTSCTFPSGDGIFWKHWIQTKDGQCGSPLVSTRDGFIVGIHSASNFTNTNNYFTSVPKNFMELLTNQEAQQWVSGWRLNADSVLWGGHKVFMVKPEEPFQPVKEATQL [Q74D] | 0.103 | – | 0.0917 | 0.101 | 0.0648 | 0.0508 | 0.0555 | 0.104 | 0.0604 | 0.0517 | 0.106 | 0.089 | 0.0661 | 0.0903 | 0.0582 | 0.0501 | 0.0734 | 0.0387 | 0.0828 | – |
| MGESLFKGPRDYNPISSSICHLTNESDGHTTSLYGIGFGPFIITNKHLFRRNNGTLVVQSLHGVFKVKDTTTLQQHLVDGRDMIIIRMPKDFPPFPQKLKFREPQREERICLVTTNFQTKSMSSMVSDTSCTFPSGDGIFWKHWIQTKDGQCGSPLVSTRDGFIVGIHSASNFTNTNNYFTSVPKNFMELLTNQEAQQWVSGWRLNADSVLWYGHKVFMVKPEEPFQPVKEATQL [G213Y] | 0.0719 | 0.0375 | 0.0825 | 0.0567 | 0.0673 | 0.058 | 0.0602 | 0.0639 | 0.0675 | 0.0673 | 0.0598 | – | – | 0.0533 | – | – | – | 0.071 | 0.0552 | – |
| MGESLFKGPRDYNPISSSICHLTNESDGHTTSLYGIGFGPFIITNKHLFRRNNGTLVVQSLHGVFKVKDTTTLQQHLVDGRDMIIIRMPKDFPPFPQKLKFREPQREECICLVTTNFQTKSMSSMVSDTSCTFPSGDGIFWKHWIQTKDGQCGSPLVSTRDGFIVGIHSASNFTNTNNYFTSVPKNFMELLTNQEAQQWVSGWRLNADSVLWGGHKVFMVKPEEPFQPVKEATQL [R109C] | 0.102 | – | 0.0677 | 0.0843 | – | – | 0.053 | 0.0955 | 0.0785 | 0.0641 | 0.121 | 0.0859 | 0.0747 | 0.0725 | 0.0763 | – | – | – | – | – |
| MGESLFKGPRDYNPISSSICHLTNESDGHTTSLYGIGFGPFIITNKHLFRRNNGTLVVQSLHGVFKVKDTTTLQQHLVDGRDMIIIRMPKDFPPFPQKLKFREPQREERICLVTTNFQTKSMSSMVSDTSCTFPSGDGIFWKHWIQTKDGQCGSPLVSTRDGFIVGIHSASNFTNTNNYFTSVPKNFMELLTNQEAQQWVSGWRLNADSVLWGGHKVFMVKGEEPFQPVKEATQL [P222G] | 0.0949 | – | 0.0662 | 0.0661 | 0.0336 | 0.0536 | 0.0546 | 0.103 | 0.0563 | – | 0.137 | 0.0569 | 0.072 | 0.0938 | 0.0772 | 0.0626 | – | – | 0.066 | – |
| MGESLFKGPRDYNPISSSICHLTNESDGHTTSLYGIGFGPFIITNKHLFRRNNGTLVVQSLHGVFKVKDTTTLQQHLVDGRDMIIIRMPKDFPPFPQKLKFREPQREERICLVTTNFQTKSMSSMVSDTSCTFPSGDGIFWKHWIQTKDGQCGSPLVSTRDGFIVGIHSASNFTNTNNYFTSVPKNFMELLTNQEAQQWVSGWRLNADSVLWGGHKVFMVKPEEPFQPVKEADQL [T233D] | 0.114 | – | – | – | 0.0536 | 0.0663 | 0.0628 | 0.113 | 0.0675 | 0.051 | 0.128 | 0.0719 | 0.06 | – | 0.0709 | – | – | 0.0659 | – | 0.0596 |
| MGESLFKGPRDYNPISSSICHLTNESDGHTTSLYGCGFGPFIITNKHLFRRNNGTLVVQSLHGVFKVKDTTTLQQHLVDGRDMIIIRMPKDFPPFPQKLKFREPQREERICLVTTNFQTKSMSSMVSDTSCTFPSGDGIFWKHWIQTKDGQCGSPLVSTRDGFIVGIHSASNFTNTNNYFTSVPKNFMELLTNQEAQQWVSGWRLNADSVLWGGHKVFMVKPEEPFQPVKEATQL [I36C] | 0.0716 | – | 0.0497 | – | – | 0.0502 | – | 0.0961 | 0.0639 | – | 0.101 | 0.0631 | 0.0616 | 0.0854 | 0.0795 | 0.0501 | 0.061 | 0.0654 | – | – |
| MGESLFKGPRDYNPISSSICHLTNESDGHTTSLYGIGFGPFIITNKHLFRRNNGTLVVQSLHGVFKVKDTTTLQQHLVDGRDMIIIRMPKDFPPFPQKLKFREPQREERICLVTTNFQTKSMSSMVSDTSCTFPSGDGIFWKHWIQTMDGQCGSPLVSTRDGFIVGIHSASNFTNTNNYFTSVPKNFMELLTNQEAQQWVSGWRLNADSVLWGGHKVFMVKPEEPFQPVKEATQL [K148M] | 0.0823 | – | 0.0787 | 0.0882 | 0.0597 | 0.0588 | 0.063 | 0.107 | 0.0634 | 0.0676 | 0.103 | – | 0.0869 | 0.0962 | – | 0.0731 | – | 0.0534 | 0.0789 | – |
| MGESLFKGPRDYNPISSSICHLTNESDGHTTSLYGIGFGPFIITNKHLFRRNNGTLVVQSLHGVFKVKDTTTGQQHLVDGRDMIIIRMPKDFPPFPQKLKFREPQREERICLVTTNFQTKSMSSMVSDTSCTFPSGDGIFWKHWIQTKDGQCGSPLVSTRDGFIVGIHSASNFTNTNNYFTSVPKNFMELLTNQEAQQWVSGWRLNADSVLWGGHKVFMVKPEEPFQPVKEATQL [L73G] | 0.0485 | – | – | – | 0.0462 | 0.0502 | 0.0542 | 0.0507 | 0.0595 | – | 0.053 | – | 0.0491 | 0.0468 | 0.0484 | – | – | 0.0433 | 0.0534 | 0.0576 |

— the supplement of paper PMC12217912
